# From publication PMC6602471
# The other results are listed elsewhere or left out. At the low end of the ranking the order means little.
# Target: T1, ETS1 (UniProt P14921)
# T1 sequence: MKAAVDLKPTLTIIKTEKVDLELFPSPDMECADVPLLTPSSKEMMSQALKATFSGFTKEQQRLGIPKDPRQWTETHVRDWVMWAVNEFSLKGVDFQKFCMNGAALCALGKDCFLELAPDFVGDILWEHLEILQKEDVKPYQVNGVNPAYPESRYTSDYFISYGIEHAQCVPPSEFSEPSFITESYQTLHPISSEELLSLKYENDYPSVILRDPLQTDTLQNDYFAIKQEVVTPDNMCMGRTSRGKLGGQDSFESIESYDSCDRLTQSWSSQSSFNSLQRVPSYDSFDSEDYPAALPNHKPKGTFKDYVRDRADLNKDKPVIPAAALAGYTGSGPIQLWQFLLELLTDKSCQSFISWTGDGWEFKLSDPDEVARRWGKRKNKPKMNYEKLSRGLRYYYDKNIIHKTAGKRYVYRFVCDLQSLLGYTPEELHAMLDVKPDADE
# Test: custom PBM
# Details: custom protein-binding microarray; buffer, salt, pH and temperature not stated; high values mean tight binding; double strand, one strand shown
row,Sequence,binding signal (log fluorescence intensity)
1,TCCGACTACCAGCTCCACCCACTTCAGGCCTTGTAGGTCTTGATTCGCTTGACGCTGCTG,8.37
2,TGTCGGGTAAGGGAATGTAGATCACGTAAATGAAAAGTCTTGATTCGCTTGACGCTGCTG,8.16
3,TACTGACTTATATATGCCAATGCACATGAATAGACCGTCTTGATTCGCTTGACGCTGCTG,8.14
4,TACTGACATATATATGCGAATGCACATGAATAGACCGTCTTGATTCGCTTGACGCTGCTG,8.43
5,GTTGCTGCGGTGCATACCCCACCGGATGTGACCCCGGTCTTGATTCGCTTGACGCTGCTG,10.4
6,TACTGACTTATATATGCGAATGCACATGAATAAACCGTCTTGATTCGCTTGACGCTGCTG,8.06
7,TAAAGGGAAGATGGTTGTGGTAGTTCCGGGTATTAAGTCTTGATTCGCTTGACGCTGCTG,8.51
8,GTGTATAGGATCCCATCCAACACACGTGCTAAAATGGTCTTGATTCGCTTGACGCTGCTG,8.31
9,CACAATTTTTACAGTAAGGTAGCACGCGTAACTCCTGTCTTGATTCGCTTGACGCTGCTG,8.29
10,TCGGGCTACCAGCTCCACCCACTTCAGGCCTTGTAGGTCTTGATTCGCTTGACGCTGCTG,8.12
11,TAAAGGGAAGACCGTTGTGGTAGTTCCGGGTATTAAGTCTTGATTCGCTTGACGCTGCTG,8.5
12,CACAATTTTTACAGTAATGTAGCACGCGTAAGTCCTGTCTTGATTCGCTTGACGCTGCTG,8.25
13,CACAATTTTCACAGTAATGTAGCACGCGTAACTCCTGTCTTGATTCGCTTGACGCTGCTG,8.1
14,GGAAAAAGGCCCAGGGTAACACCGGCAGTGGGCTTAGTCTTGATTCGCTTGACGCTGCTG,8.37
15,CTGGGACTTGACCCAACTCTGCAACGTGGGTCGTTTGTCTTGATTCGCTTGACGCTGCTG,8.17
16,TCCAGCTACCAGCTCCACCCACTTCAGGCCTTGTAGGTCTTGATTCGCTTGACGCTGCTG,8.23
17,TGTCGGGTAAGGGAATGTAGATCACGTGGATGAAAAGTCTTGATTCGCTTGACGCTGCTG,8.11
18,AAGCATAGGACTTCTTCCCTGAAGCAATTGATAACCGTCTTGATTCGCTTGACGCTGCTG,8.04
19,TACAGGGAAGACGGTTGTGGTAGTTCCGGGTATTAAGTCTTGATTCGCTTGACGCTGCTG,8.45
20,TGTCGGGTAAGGGAATGTAGATCACGTGAAGGAAAAGTCTTGATTCGCTTGACGCTGCTG,8.26
21,TGTCGTGTAAGGGAATGTAGATCACGTGAATGAAAAGTCTTGATTCGCTTGACGCTGCTG,8.37
22,GGAAAAAGGCCCAGGGAAACACCGGAAGTGGGCTTAGTCTTGATTCGCTTGACGCTGCTG,12.3
23,CGGAAGTGTCGTAAACGTCGGATATCGGGTTCTTCTGTCTTGATTCGCTTGACGCTGCTG,8.65
24,GTGTATAGGATCCCATCCTACACACGTGTTAAAATGGTCTTGATTCGCTTGACGCTGCTG,8.21
25,CTGGGACTTGACCCAACTCTGCCACGGGGGTCGTTTGTCTTGATTCGCTTGACGCTGCTG,8.24
26,CTGGGACTTGACCCAACTCTGCCACGTGGGTCGATTGTCTTGATTCGCTTGACGCTGCTG,8.33

row,Sequence,binding signal (log fluorescence intensity)
1,GATAAATTTCTGCCCTTATTCGCACGTGCCATAACAGTCTTGATTCGCTTGACGCTGCTG,8.15
2,GGAAAAAGGCCCAAGGTAACACCGGAAGTGGGCTTAGTCTTGATTCGCTTGACGCTGCTG,12.1
3,TACTGGCTTATATATGCGAATGCACATGAATAGACCGTCTTGATTCGCTTGACGCTGCTG,8.27
4,GGAAAAAGGCCCAGGGTAACACCGGAAGTGGGCTGAGTCTTGATTCGCTTGACGCTGCTG,11.9
5,CTGGGGCTTGACCCAACTCTGCCACGTGGGTCGTTTGTCTTGATTCGCTTGACGCTGCTG,8.22
6,TACTGACTTATATATGAGAATGCACATGAATAGACCGTCTTGATTCGCTTGACGCTGCTG,8.19
7,GCTGCTGCGGTGCATATCCCACCGGATGTGACCCCGGTCTTGATTCGCTTGACGCTGCTG,10.6
8,TAAAGGGAAGACGGTCGTGGTAGTTCCGGGTATTAAGTCTTGATTCGCTTGACGCTGCTG,8.53
9,CACAATTTTTACAGTAATGTCGCACGCGTAACTCCTGTCTTGATTCGCTTGACGCTGCTG,8.28
10,GATTAATTTCTGCCCTTATTCTCACGTGCCATAACAGTCTTGATTCGCTTGACGCTGCTG,8.12
11,GACAATTTTTACAGTAATGTAGCACGCGTAACTCCTGTCTTGATTCGCTTGACGCTGCTG,8.05
12,TACTGACTTATATATGCGAATGCACATGAATAGCCCGTCTTGATTCGCTTGACGCTGCTG,8.25
13,TCCGGCTACCAGCTCCACCCACTTCAGGCCTTGTAAGTCTTGATTCGCTTGACGCTGCTG,8.24
14,TGTCGGGTAAGGGAATGTAGATCACGTGAAAGAAAAGTCTTGATTCGCTTGACGCTGCTG,8.17
15,GGAAAAAGGCCCTGGGTAACACCGGAAGTGGGCTTAGTCTTGATTCGCTTGACGCTGCTG,12
16,GTGTATAGGATCCCATCCAACACACGTGTTGAAATGGTCTTGATTCGCTTGACGCTGCTG,8.28
17,TACTGACTGATATATGCGAATGCACATGAATAGACCGTCTTGATTCGCTTGACGCTGCTG,8.27
18,GCTGCTGCGGTGCATACCCCGCCGGATGTGACCCCGGTCTTGATTCGCTTGACGCTGCTG,9.33
19,GGAAAAAGGCCCAGGGTAAAACCGGAAGTGGGCTTAGTCTTGATTCGCTTGACGCTGCTG,12.1
20,CTGGGACTTGACCCAACTCTGCCACGTGGGTCGTTTGTCTTGATTCGCTTGACGCTGCTG,8.2
21,GGAAAAAGGCCCAGGGTAACACCGGAACTGGGCTTAGTCTTGATTCGCTTGACGCTGCTG,9.07
22,TAAAGGGAAGAGGGTTGTGGTAGTTCCGGGTATTAAGTCTTGATTCGCTTGACGCTGCTG,8.6
23,GCTGCTGCGGTGCATACCCTACCGGATGTGACCCCGGTCTTGATTCGCTTGACGCTGCTG,10.2
24,TGTCGGGTAAGGGAATGTAGATCTCGTGAATGAAAAGTCTTGATTCGCTTGACGCTGCTG,8.29
25,GCTGCTGCGTTGCATACCCCACCGGATGTGACCCCGGTCTTGATTCGCTTGACGCTGCTG,10
26,TAAAGCGAAGACGGTTGTGGTAGTTCCGGGTATTAAGTCTTGATTCGCTTGACGCTGCTG,8.48
